Results as given in the supplement of paper PMC11876631.
± gives the standard deviation of the averaged measurements. Laboratory Escherichia coli strains with one amino-acid change in an essential protein, pooled on minimal glucose agar with carbenicillin or gentamicin at twice the control MIC (plus kanamycin and chloramphenicol for the plasmids), 48 h. Fold change of barcode share against drug-free plates; higher = less susceptible. Active = above 20 in both replicates (the paper's putatively resistant). '<' = one read or none on drug, '>' = one read or none on a drug-free plate. Shares are relative, so most strains fall below 1 when a few take over. Listed are strains with at least 15 reads on both drug-free plates, and hits; most hits rest on fewer reference reads. Replicate rank correlation about 0.5. Edits are read from barcodes.

B1: purH V21P (protein)
chain: MQQRRPVRRALLSVSDKAGIPEFAQALSARGVELLSTGGTARLLAEKGLPVTEVSDYTGFPEMMDGRVKTLHPKVHGGILGRRGQDDAIMEEHQIQPIDMVVVNLYPFAQTVAREGCSLEDAVENIDIGGPTMVRSAAKNHKDVAIVVKSSDYDAIIKEMDDNEGSLTLATRFDLAIKAFEHTAAYDSMIANYFGSMVPAYHGESKEAAGRFPRTLNLNFIKKLDMRYGENSHQQAAFYIEENVKEASVATATQVQGKALSYNNIADTDAALECVKEFAEPACVIVKHANPCGVAIGNSILDAYDRAYKTDPTSAFGGIIAFNRELDAETAQAIISRQFVEVIIAPSASEEALKITAAKQNVRVLTCGQWGERVPGLDFKRVNGGLLVQDRDLGMVGAEELRVVTKRQPSEQELRDALFCWKVAKFVKSNAIVYAKNNMTIGIGAGQMSRVYSAKIAGIKAADEGLEVKGSSMASDAFFPFRDGIDAAAAAGVTCVIQPGGSIRDDEVIAAADEHGIAMLFTDMRHFRH
B2: purH V396D (protein)
chain: MQQRRPVRRALLSVSDKAGIVEFAQALSARGVELLSTGGTARLLAEKGLPVTEVSDYTGFPEMMDGRVKTLHPKVHGGILGRRGQDDAIMEEHQIQPIDMVVVNLYPFAQTVAREGCSLEDAVENIDIGGPTMVRSAAKNHKDVAIVVKSSDYDAIIKEMDDNEGSLTLATRFDLAIKAFEHTAAYDSMIANYFGSMVPAYHGESKEAAGRFPRTLNLNFIKKLDMRYGENSHQQAAFYIEENVKEASVATATQVQGKALSYNNIADTDAALECVKEFAEPACVIVKHANPCGVAIGNSILDAYDRAYKTDPTSAFGGIIAFNRELDAETAQAIISRQFVEVIIAPSASEEALKITAAKQNVRVLTCGQWGERVPGLDFKRVNGGLLVQDRDLGMDGAEELRVVTKRQPSEQELRDALFCWKVAKFVKSNAIVYAKNNMTIGIGAGQMSRVYSAKIAGIKAADEGLEVKGSSMASDAFFPFRDGIDAAAAAGVTCVIQPGGSIRDDEVIAAADEHGIAMLFTDMRHFRH
B3: purH V396P (protein)
chain: MQQRRPVRRALLSVSDKAGIVEFAQALSARGVELLSTGGTARLLAEKGLPVTEVSDYTGFPEMMDGRVKTLHPKVHGGILGRRGQDDAIMEEHQIQPIDMVVVNLYPFAQTVAREGCSLEDAVENIDIGGPTMVRSAAKNHKDVAIVVKSSDYDAIIKEMDDNEGSLTLATRFDLAIKAFEHTAAYDSMIANYFGSMVPAYHGESKEAAGRFPRTLNLNFIKKLDMRYGENSHQQAAFYIEENVKEASVATATQVQGKALSYNNIADTDAALECVKEFAEPACVIVKHANPCGVAIGNSILDAYDRAYKTDPTSAFGGIIAFNRELDAETAQAIISRQFVEVIIAPSASEEALKITAAKQNVRVLTCGQWGERVPGLDFKRVNGGLLVQDRDLGMPGAEELRVVTKRQPSEQELRDALFCWKVAKFVKSNAIVYAKNNMTIGIGAGQMSRVYSAKIAGIKAADEGLEVKGSSMASDAFFPFRDGIDAAAAAGVTCVIQPGGSIRDDEVIAAADEHGIAMLFTDMRHFRH
B4: purH V396W (protein)
chain: MQQRRPVRRALLSVSDKAGIVEFAQALSARGVELLSTGGTARLLAEKGLPVTEVSDYTGFPEMMDGRVKTLHPKVHGGILGRRGQDDAIMEEHQIQPIDMVVVNLYPFAQTVAREGCSLEDAVENIDIGGPTMVRSAAKNHKDVAIVVKSSDYDAIIKEMDDNEGSLTLATRFDLAIKAFEHTAAYDSMIANYFGSMVPAYHGESKEAAGRFPRTLNLNFIKKLDMRYGENSHQQAAFYIEENVKEASVATATQVQGKALSYNNIADTDAALECVKEFAEPACVIVKHANPCGVAIGNSILDAYDRAYKTDPTSAFGGIIAFNRELDAETAQAIISRQFVEVIIAPSASEEALKITAAKQNVRVLTCGQWGERVPGLDFKRVNGGLLVQDRDLGMWGAEELRVVTKRQPSEQELRDALFCWKVAKFVKSNAIVYAKNNMTIGIGAGQMSRVYSAKIAGIKAADEGLEVKGSSMASDAFFPFRDGIDAAAAAGVTCVIQPGGSIRDDEVIAAADEHGIAMLFTDMRHFRH
B5: purH M100A (protein)
chain: MQQRRPVRRALLSVSDKAGIVEFAQALSARGVELLSTGGTARLLAEKGLPVTEVSDYTGFPEMMDGRVKTLHPKVHGGILGRRGQDDAIMEEHQIQPIDAVVVNLYPFAQTVAREGCSLEDAVENIDIGGPTMVRSAAKNHKDVAIVVKSSDYDAIIKEMDDNEGSLTLATRFDLAIKAFEHTAAYDSMIANYFGSMVPAYHGESKEAAGRFPRTLNLNFIKKLDMRYGENSHQQAAFYIEENVKEASVATATQVQGKALSYNNIADTDAALECVKEFAEPACVIVKHANPCGVAIGNSILDAYDRAYKTDPTSAFGGIIAFNRELDAETAQAIISRQFVEVIIAPSASEEALKITAAKQNVRVLTCGQWGERVPGLDFKRVNGGLLVQDRDLGMVGAEELRVVTKRQPSEQELRDALFCWKVAKFVKSNAIVYAKNNMTIGIGAGQMSRVYSAKIAGIKAADEGLEVKGSSMASDAFFPFRDGIDAAAAAGVTCVIQPGGSIRDDEVIAAADEHGIAMLFTDMRHFRH
B6: purH V123W (protein)
chain: MQQRRPVRRALLSVSDKAGIVEFAQALSARGVELLSTGGTARLLAEKGLPVTEVSDYTGFPEMMDGRVKTLHPKVHGGILGRRGQDDAIMEEHQIQPIDMVVVNLYPFAQTVAREGCSLEDAWENIDIGGPTMVRSAAKNHKDVAIVVKSSDYDAIIKEMDDNEGSLTLATRFDLAIKAFEHTAAYDSMIANYFGSMVPAYHGESKEAAGRFPRTLNLNFIKKLDMRYGENSHQQAAFYIEENVKEASVATATQVQGKALSYNNIADTDAALECVKEFAEPACVIVKHANPCGVAIGNSILDAYDRAYKTDPTSAFGGIIAFNRELDAETAQAIISRQFVEVIIAPSASEEALKITAAKQNVRVLTCGQWGERVPGLDFKRVNGGLLVQDRDLGMVGAEELRVVTKRQPSEQELRDALFCWKVAKFVKSNAIVYAKNNMTIGIGAGQMSRVYSAKIAGIKAADEGLEVKGSSMASDAFFPFRDGIDAAAAAGVTCVIQPGGSIRDDEVIAAADEHGIAMLFTDMRHFRH
B7: purH V396Q (protein)
chain: MQQRRPVRRALLSVSDKAGIVEFAQALSARGVELLSTGGTARLLAEKGLPVTEVSDYTGFPEMMDGRVKTLHPKVHGGILGRRGQDDAIMEEHQIQPIDMVVVNLYPFAQTVAREGCSLEDAVENIDIGGPTMVRSAAKNHKDVAIVVKSSDYDAIIKEMDDNEGSLTLATRFDLAIKAFEHTAAYDSMIANYFGSMVPAYHGESKEAAGRFPRTLNLNFIKKLDMRYGENSHQQAAFYIEENVKEASVATATQVQGKALSYNNIADTDAALECVKEFAEPACVIVKHANPCGVAIGNSILDAYDRAYKTDPTSAFGGIIAFNRELDAETAQAIISRQFVEVIIAPSASEEALKITAAKQNVRVLTCGQWGERVPGLDFKRVNGGLLVQDRDLGMQGAEELRVVTKRQPSEQELRDALFCWKVAKFVKSNAIVYAKNNMTIGIGAGQMSRVYSAKIAGIKAADEGLEVKGSSMASDAFFPFRDGIDAAAAAGVTCVIQPGGSIRDDEVIAAADEHGIAMLFTDMRHFRH
B8: purH M100W (protein)
chain: MQQRRPVRRALLSVSDKAGIVEFAQALSARGVELLSTGGTARLLAEKGLPVTEVSDYTGFPEMMDGRVKTLHPKVHGGILGRRGQDDAIMEEHQIQPIDWVVVNLYPFAQTVAREGCSLEDAVENIDIGGPTMVRSAAKNHKDVAIVVKSSDYDAIIKEMDDNEGSLTLATRFDLAIKAFEHTAAYDSMIANYFGSMVPAYHGESKEAAGRFPRTLNLNFIKKLDMRYGENSHQQAAFYIEENVKEASVATATQVQGKALSYNNIADTDAALECVKEFAEPACVIVKHANPCGVAIGNSILDAYDRAYKTDPTSAFGGIIAFNRELDAETAQAIISRQFVEVIIAPSASEEALKITAAKQNVRVLTCGQWGERVPGLDFKRVNGGLLVQDRDLGMVGAEELRVVTKRQPSEQELRDALFCWKVAKFVKSNAIVYAKNNMTIGIGAGQMSRVYSAKIAGIKAADEGLEVKGSSMASDAFFPFRDGIDAAAAAGVTCVIQPGGSIRDDEVIAAADEHGIAMLFTDMRHFRH
B9: purH V102A (protein)
chain: MQQRRPVRRALLSVSDKAGIVEFAQALSARGVELLSTGGTARLLAEKGLPVTEVSDYTGFPEMMDGRVKTLHPKVHGGILGRRGQDDAIMEEHQIQPIDMVAVNLYPFAQTVAREGCSLEDAVENIDIGGPTMVRSAAKNHKDVAIVVKSSDYDAIIKEMDDNEGSLTLATRFDLAIKAFEHTAAYDSMIANYFGSMVPAYHGESKEAAGRFPRTLNLNFIKKLDMRYGENSHQQAAFYIEENVKEASVATATQVQGKALSYNNIADTDAALECVKEFAEPACVIVKHANPCGVAIGNSILDAYDRAYKTDPTSAFGGIIAFNRELDAETAQAIISRQFVEVIIAPSASEEALKITAAKQNVRVLTCGQWGERVPGLDFKRVNGGLLVQDRDLGMVGAEELRVVTKRQPSEQELRDALFCWKVAKFVKSNAIVYAKNNMTIGIGAGQMSRVYSAKIAGIKAADEGLEVKGSSMASDAFFPFRDGIDAAAAAGVTCVIQPGGSIRDDEVIAAADEHGIAMLFTDMRHFRH
B10: purH V396A (protein)
chain: MQQRRPVRRALLSVSDKAGIVEFAQALSARGVELLSTGGTARLLAEKGLPVTEVSDYTGFPEMMDGRVKTLHPKVHGGILGRRGQDDAIMEEHQIQPIDMVVVNLYPFAQTVAREGCSLEDAVENIDIGGPTMVRSAAKNHKDVAIVVKSSDYDAIIKEMDDNEGSLTLATRFDLAIKAFEHTAAYDSMIANYFGSMVPAYHGESKEAAGRFPRTLNLNFIKKLDMRYGENSHQQAAFYIEENVKEASVATATQVQGKALSYNNIADTDAALECVKEFAEPACVIVKHANPCGVAIGNSILDAYDRAYKTDPTSAFGGIIAFNRELDAETAQAIISRQFVEVIIAPSASEEALKITAAKQNVRVLTCGQWGERVPGLDFKRVNGGLLVQDRDLGMAGAEELRVVTKRQPSEQELRDALFCWKVAKFVKSNAIVYAKNNMTIGIGAGQMSRVYSAKIAGIKAADEGLEVKGSSMASDAFFPFRDGIDAAAAAGVTCVIQPGGSIRDDEVIAAADEHGIAMLFTDMRHFRH

Molecular target: Escherichia coli (laboratory strain)
Assay: barcode share on antibiotic plates over drug-free plates; higher = less susceptible
Experimental: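 A pool of E. coli strains, each edited to carry one amino-acid change in an essential protein, was grown for 48 h on minimal glucose agar with or without antibiotic; strain barcodes were sequenced; mean of two replicates.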

[1] = antibiotic: carbenicillin, 2× MIC (3.1 µg/mL)
[2] = antibiotic: gentamicin, 2× MIC (MIC 0.45 µg/mL)

Row | Protein | fold change of barcode share [1] | fold change of barcode share [2]
1 | B1 | 0.906 ± 0.19 | 0.0183 ± 0.016
2 | B2 | 0.358 ± 0.22 | 0.0108 ± 0.0073
3 | B3 | 0.304 ± 0.15 | 0.00735 ± 0.0044
4 | B4 | 0.274 ± 0.13 | < 0.00357
5 | B5 | 0.418 ± 0.15 | < 0.0042
6 | B6 | 0.176 ± 0.0068 | < 0.00389
7 | B7 | 0.375 ± 0.19 | 0.00524 ± 0.0028
8 | B8 | 0.999 ± 0.32 | –
9 | B9 | 0.211 ± 0.045 | < 0.0108
10 | B10 | 0.293 ± 0.0045 | 0.00665 ± 0.0056
